Results are given in words; binding and its absence hold for the method and conditions named. For part of these data: In cells and extracts the contact can be indirect. Some results given as binding are weak or reduced against the parent protein; the word gives no strength. Where a sequence is shown, tags or fusion partners need not be part of it. One block for each binder: values may come before it.
Assays:
[1] = biological target: T1, VH1-… Kinase (VIK) in pGBKT7 (BD-VIK) (Arabidopsis) (UniProt Q9XI87); assay: two-hybrid; pGADT7 (AD) and pGBKT7 (BD) fusions in AH109 yeast; growth on SD/-Leu/-Trp/-His or SD/-Leu/-Trp/-His/-Ade; autoactivation inhibited by 3-AT (25 mM for VIK-ERF13)
T1 sequence: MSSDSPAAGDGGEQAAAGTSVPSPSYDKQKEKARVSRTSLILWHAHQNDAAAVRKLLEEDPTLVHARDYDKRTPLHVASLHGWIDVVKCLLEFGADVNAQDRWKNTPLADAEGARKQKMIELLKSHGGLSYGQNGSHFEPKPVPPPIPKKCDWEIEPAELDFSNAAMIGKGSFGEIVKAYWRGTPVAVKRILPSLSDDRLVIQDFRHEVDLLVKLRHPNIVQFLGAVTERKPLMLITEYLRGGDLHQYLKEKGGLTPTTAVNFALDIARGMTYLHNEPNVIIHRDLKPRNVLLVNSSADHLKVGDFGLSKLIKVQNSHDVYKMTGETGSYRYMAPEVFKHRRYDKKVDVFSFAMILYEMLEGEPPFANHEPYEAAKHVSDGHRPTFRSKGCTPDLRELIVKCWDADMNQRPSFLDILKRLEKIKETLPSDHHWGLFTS

The chains behind the UniProt entries cited, without tags or fusion partners.
UniProt Q8L9K1: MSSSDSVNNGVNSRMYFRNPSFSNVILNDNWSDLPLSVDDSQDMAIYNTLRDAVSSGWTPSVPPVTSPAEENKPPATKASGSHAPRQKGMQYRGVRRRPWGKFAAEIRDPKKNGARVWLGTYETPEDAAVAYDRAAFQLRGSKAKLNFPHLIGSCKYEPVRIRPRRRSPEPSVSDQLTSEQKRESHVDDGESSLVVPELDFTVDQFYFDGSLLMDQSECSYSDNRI

[2] = biological target: Ethylene Responsive Factor 13 (ERF13) fused to the binding domain (BD-ERF13) (Arabidopsis) (UniProt Q8L9K1); assay: as above
cYFP-LBD18 (Arabidopsis) = biological target: T2, cYFP-LBD18 (Arabidopsis) (UniProt O22131); assay: split reporter; BiFC: nYFP and cYFP fusions co-expressed in leaf cells of N. benthamiana; confocal microscopy
T2 sequence: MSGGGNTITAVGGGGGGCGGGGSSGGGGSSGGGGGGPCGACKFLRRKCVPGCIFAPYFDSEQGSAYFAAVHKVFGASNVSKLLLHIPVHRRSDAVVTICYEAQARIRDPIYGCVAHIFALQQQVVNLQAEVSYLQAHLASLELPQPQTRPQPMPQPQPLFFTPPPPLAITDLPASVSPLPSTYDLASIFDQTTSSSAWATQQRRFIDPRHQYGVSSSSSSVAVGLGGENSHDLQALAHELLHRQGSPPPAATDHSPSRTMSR

cLUC-VIK (Arabidopsis) = biological target: T3, cLUC-VIK (Arabidopsis) (UniProt Q9XI87); assay: split reporter; luciferase complementation imaging (LCI): nLUC and cLUC fusions co-transformed by Agrobacterium GV3101 into N. benthamiana leaves; 24 h dark, 48 h light; D-luciferin; VIK-VIK also with co-expressed 35S::ERF13, ERF13 2A or ERF13 2D
T3 sequence: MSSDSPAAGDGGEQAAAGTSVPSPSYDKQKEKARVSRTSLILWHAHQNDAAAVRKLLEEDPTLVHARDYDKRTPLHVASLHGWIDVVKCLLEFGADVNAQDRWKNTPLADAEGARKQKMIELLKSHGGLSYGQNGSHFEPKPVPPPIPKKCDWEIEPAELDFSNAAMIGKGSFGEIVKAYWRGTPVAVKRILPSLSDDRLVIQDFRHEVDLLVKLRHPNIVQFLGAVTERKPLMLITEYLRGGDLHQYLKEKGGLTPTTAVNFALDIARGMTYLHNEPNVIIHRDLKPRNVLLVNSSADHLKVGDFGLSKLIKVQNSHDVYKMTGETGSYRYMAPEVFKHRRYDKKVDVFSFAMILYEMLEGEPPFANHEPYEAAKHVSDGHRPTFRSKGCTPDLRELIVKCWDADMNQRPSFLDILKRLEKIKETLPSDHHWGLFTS

cLUC-ERF13 (Arabidopsis) = cLUC-ERF13 (Arabidopsis) (UniProt Q8L9K1); assay: as above
cYFP-ERF13 (Arabidopsis) = cYFP-ERF13 (Arabidopsis) (UniProt Q8L9K1); assay: split reporter; BiFC: nYFP and cYFP fusions co-transformed into Arabidopsis mesophyll protoplasts; confocal microscopy
ERF13-Myc (Arabidopsis) = ERF13-Myc (Arabidopsis) (UniProt Q8L9K1); assay: co-IP; ERF13-Myc and YFP-VIK co-expressed in Arabidopsis mesophyll protoplasts; NP-40 lysis buffer; Myc-Trap agarose beads, 4 °C, 2 h; washed with 10 mM Tris-HCl pH 7.5, 150 mM NaCl, 0.5 mM EDTA; blot with anti-GFP and anti-Myc

B1: MPK14 in pGADT7 (AD-MPK14) (enzyme, UniProt O23236 1-361)
chain: MAMLVDPPNGIRQEGKHYYTMWQTLFEIDTKYVPIKPIGRGAYGVVCSSINSETNERVAIKKIHNVFENRIDALRTLRELKLLRHVRHENVISLKDVMLPTHRYSFRDVYLVYELMDSDLNQIIKSSQSLSDDHCKYFLFQLLRGLKYLHSANILHRDLKPGNLLVNANCDLKICDFGLARTYEQFMTEYVVTRWYRAPELLLCCDNYGTSIDVWSVGCIFAEILGRKPIFPGTECLNQLKLIINVVGSQQDWDLQFIDNQKARRFIKSLPFSKGTHFSHIYPHANPLAIDLLQRMLVFDPTKRISVSDALLHPYMEGLLEPECNPSENVPVSSLEIDENMEGDMIREMMWEEMLHYLPRA
binding [1]: no binding

B2: VH1-… Kinase (VIK) fused to the activation domain (AD-VIK) (enzyme, UniProt Q9XI87 1-438)
chain: MSSDSPAAGDGGEQAAAGTSVPSPSYDKQKEKARVSRTSLILWHAHQNDAAAVRKLLEEDPTLVHARDYDKRTPLHVASLHGWIDVVKCLLEFGADVNAQDRWKNTPLADAEGARKQKMIELLKSHGGLSYGQNGSHFEPKPVPPPIPKKCDWEIEPAELDFSNAAMIGKGSFGEIVKAYWRGTPVAVKRILPSLSDDRLVIQDFRHEVDLLVKLRHPNIVQFLGAVTERKPLMLITEYLRGGDLHQYLKEKGGLTPTTAVNFALDIARGMTYLHNEPNVIIHRDLKPRNVLLVNSSADHLKVGDFGLSKLIKVQNSHDVYKMTGETGSYRYMAPEVFKHRRYDKKVDVFSFAMILYEMLEGEPPFANHEPYEAAKHVSDGHRPTFRSKGCTPDLRELIVKCWDADMNQRPSFLDILKRLEKIKETLPSDHHWGLFTS
binding [2]: binds
binding [1]: binds

B3: nYFP-VIK (in N. benthamiana leaves) (enzyme, UniProt Q9XI87 1-438)
chain: MSSDSPAAGDGGEQAAAGTSVPSPSYDKQKEKARVSRTSLILWHAHQNDAAAVRKLLEEDPTLVHARDYDKRTPLHVASLHGWIDVVKCLLEFGADVNAQDRWKNTPLADAEGARKQKMIELLKSHGGLSYGQNGSHFEPKPVPPPIPKKCDWEIEPAELDFSNAAMIGKGSFGEIVKAYWRGTPVAVKRILPSLSDDRLVIQDFRHEVDLLVKLRHPNIVQFLGAVTERKPLMLITEYLRGGDLHQYLKEKGGLTPTTAVNFALDIARGMTYLHNEPNVIIHRDLKPRNVLLVNSSADHLKVGDFGLSKLIKVQNSHDVYKMTGETGSYRYMAPEVFKHRRYDKKVDVFSFAMILYEMLEGEPPFANHEPYEAAKHVSDGHRPTFRSKGCTPDLRELIVKCWDADMNQRPSFLDILKRLEKIKETLPSDHHWGLFTS
binding (cYFP-LBD18 (Arabidopsis)): binds

B7: TMK1-nLUC (receptor, UniProt P43298 24-942)
chain: DSDGDLSAMLSLKKSLNPPSSFGWSDPDPCKWTHIVCTGTKRVTRIQIGHSGLQGTLSPDLRNLSELERLELQWNNISGPVPSLSGLASLQVLMLSNNNFDSIPSDVFQGLTSLQSVEIDNNPFKSWEIPESLRNASALQNFSANSANVSGSLPGFLGPDEFPGLSILHLAFNNLEGELPMSLAGSQVQSLWLNGQKLTGDITVLQNMTGLKEVWLHSNKFSGPLPDFSGLKELESLSLRDNSFTGPVPASLLSLESLKVVNLTNNHLQGPVPVFKSSVSVDLDKDSNSFCLSSPGECDPRVKSLLLIASSFDYPPRLAESWKGNDPCTNWIGIACSNGNITVISLEKMELTGTISPEFGAIKSLQRIILGINNLTGMIPQELTTLPNLKTLDVSSNKLFGKVPGFRSNVVVNTNGNPDIGKDKSSLSSPGSSSPSGGSGSGINGDKDRRGMKSSTFIGIIVGSVLGGLLSIFLIGLLVFCWYKKRQKRFSGSESSNAVVVHPRHSGSDNESVKITVAGSSVSVGGISDTYTLPGTSEVGDNIQMVEAGNMLISIQVLRSVTNNFSSDNILGSGGFGVVYKGELHDGTKIAVKRMENGVIAGKGFAEFKSEIAVLTKVRHRHLVTLLGYCLDGNEKLLVYEYMPQGTLSRHLFEWSEEGLKPLLWKQRLTLALDVARGVEYLHGLAHQSFIHRDLKPSNILLGDDMRAKVADFGLVRLAPEGKGSIETRIAGTFGYLAPEYAVTGRVTTKVDVYSFGVILMELITGRKSLDESQPEESIHLVSWFKRMYINKEASFKKAIDTTIDLDEETLASVHTVAELAGHCCAREPYQRPDMGHAVNILSSLVELWKPSDQNPEDIYGIDLDMSLPQALKKWQAYEGRSDLESSTSSLLPSLDNTQMSIPTRPYGFAESFTSVDGR
binding (cLUC-VIK (Arabidopsis)): binds

Further lines, results first:

binding (cLUC-VIK (Arabidopsis)): binds
binding (cLUC-ERF13 (Arabidopsis)): binds
B4: VIK-nLUC (enzyme, UniProt Q9XI87 1-438)
chain: MSSDSPAAGDGGEQAAAGTSVPSPSYDKQKEKARVSRTSLILWHAHQNDAAAVRKLLEEDPTLVHARDYDKRTPLHVASLHGWIDVVKCLLEFGADVNAQDRWKNTPLADAEGARKQKMIELLKSHGGLSYGQNGSHFEPKPVPPPIPKKCDWEIEPAELDFSNAAMIGKGSFGEIVKAYWRGTPVAVKRILPSLSDDRLVIQDFRHEVDLLVKLRHPNIVQFLGAVTERKPLMLITEYLRGGDLHQYLKEKGGLTPTTAVNFALDIARGMTYLHNEPNVIIHRDLKPRNVLLVNSSADHLKVGDFGLSKLIKVQNSHDVYKMTGETGSYRYMAPEVFKHRRYDKKVDVFSFAMILYEMLEGEPPFANHEPYEAAKHVSDGHRPTFRSKGCTPDLRELIVKCWDADMNQRPSFLDILKRLEKIKETLPSDHHWGLFTS

binding (cYFP-ERF13 (Arabidopsis)): binds
B5: nYFP-VIK (in Arabidopsis protoplasts) (enzyme, UniProt Q9XI87 1-438)
chain: MSSDSPAAGDGGEQAAAGTSVPSPSYDKQKEKARVSRTSLILWHAHQNDAAAVRKLLEEDPTLVHARDYDKRTPLHVASLHGWIDVVKCLLEFGADVNAQDRWKNTPLADAEGARKQKMIELLKSHGGLSYGQNGSHFEPKPVPPPIPKKCDWEIEPAELDFSNAAMIGKGSFGEIVKAYWRGTPVAVKRILPSLSDDRLVIQDFRHEVDLLVKLRHPNIVQFLGAVTERKPLMLITEYLRGGDLHQYLKEKGGLTPTTAVNFALDIARGMTYLHNEPNVIIHRDLKPRNVLLVNSSADHLKVGDFGLSKLIKVQNSHDVYKMTGETGSYRYMAPEVFKHRRYDKKVDVFSFAMILYEMLEGEPPFANHEPYEAAKHVSDGHRPTFRSKGCTPDLRELIVKCWDADMNQRPSFLDILKRLEKIKETLPSDHHWGLFTS

binding (ERF13-Myc (Arabidopsis)): binds
B6: YFP-VIK (enzyme, UniProt Q9XI87 1-438)
chain: MSSDSPAAGDGGEQAAAGTSVPSPSYDKQKEKARVSRTSLILWHAHQNDAAAVRKLLEEDPTLVHARDYDKRTPLHVASLHGWIDVVKCLLEFGADVNAQDRWKNTPLADAEGARKQKMIELLKSHGGLSYGQNGSHFEPKPVPPPIPKKCDWEIEPAELDFSNAAMIGKGSFGEIVKAYWRGTPVAVKRILPSLSDDRLVIQDFRHEVDLLVKLRHPNIVQFLGAVTERKPLMLITEYLRGGDLHQYLKEKGGLTPTTAVNFALDIARGMTYLHNEPNVIIHRDLKPRNVLLVNSSADHLKVGDFGLSKLIKVQNSHDVYKMTGETGSYRYMAPEVFKHRRYDKKVDVFSFAMILYEMLEGEPPFANHEPYEAAKHVSDGHRPTFRSKGCTPDLRELIVKCWDADMNQRPSFLDILKRLEKIKETLPSDHHWGLFTS

From publication PMC11434109, “VIK‐Mediated Auxin Signaling Regulates Lateral Root Development in Arabidopsis” (Advanced Science, 2024)
